Over roughly 33,000 sequences, “E-score (-0.5 to 0.5)” has its median near -0.04; the highest 2% begin near 0.36. The list shows a part of the results.
What follows are sequences tested against T1, Hmlalpha2 (UniProt P0CY09) (assay: PBM E-score (8-mer binding enrichment) (E-score (-0.5 to 0.5)); higher = stronger / more preferred TF binding; most listed sequences are background and not binding sites). Details: protein concentration: 200 nM; construct: GST-full length.
T1 sequence: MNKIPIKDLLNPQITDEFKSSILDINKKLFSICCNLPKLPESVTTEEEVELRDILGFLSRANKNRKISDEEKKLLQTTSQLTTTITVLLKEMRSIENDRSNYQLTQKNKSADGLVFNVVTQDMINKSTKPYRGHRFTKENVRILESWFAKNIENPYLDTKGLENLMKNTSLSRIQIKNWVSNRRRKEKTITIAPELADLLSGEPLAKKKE
In short: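 The E-score, a modified Wilcoxon-Mann-Whitney statistic, was computed by the Universal PBM Analysis Suite for every ungapped eight-base word pooled with its reverse complement. Scans behind it were normalised with masliner after bound GST-tagged yeast transcription factors were detected with fluorescent anti-GST. The proteins, at about 100-200 nM, had been applied to universal all-10-mer Agilent arrays made double-stranded by primer extension.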

Sequence | PBM E-score
ACATACAG | 0.336
CTCCGTGA | -0.182
ACCTACAG | -0.0898
CTAACTGC | -0.166
CGCAGAGC | -0.128
ATGCCCCC | -0.26
AACCCCCC | -0.355
GCATCTTA | -0.0174
ATCCCGCA | 0.103
AACCGTCG | 0.0585
CCTATGCG | -0.0726
CATCGTGC | 0.0775
AAAAGCGA | 0.0689
GTCCTTGA | 0.0679
GCTTAGGA | -0.268
ATTATAAG | 0.0165
GAGGGCAC | -0.357
CGGAGCCA | -0.0994
CCATTACA | 0.435
ACCCTTTA | 0.12
CAATATCG | -0.129
AGCCCCCC | -0.344
ACGGCAAA | -0.00563
ATTGGACC | -0.235
GCTGGCAC | -0.0272

Sequence | PBM E-score
CAGCACCC | -0.206
ATTTGTCC | 0.0162
ATCAAGAG | -0.0252
CTCACCAA | -0.15
ACGTGCGA | 0.0576
ATGGAATC | 0.114
TAGCTATA | -0.0261
CTCATGGC | -0.127
GCCCTAAC | 0.0268
AAGGACTG | -0.201
GTTCCCGA | -0.0578
CTAATCAC | 0.0641
CTTTCTCC | -0.234
CTGATGCC | -0.132
ACTACATA | 0.378
AACCGCAA | -0.00406
GTCTCTAA | -0.0508
CCGTCTAG | -0.148
ACACAGTC | 0.215
CCAAAGCC | -0.274
CGGCCACA | -0.177
GCATGCTA | 0.00271
ACGACCCA | -0.0906
ATGTATAC | 0.435
CATTGATC | 0.0793

Sequence | PBM E-score
GAACTTTA | 0.0729
GACGAGCC | -0.0177
CGGGCCTA | -0.294
CAAAAGGC | -0.0677
CATCCGGG | -0.166
TTAAACAA | 0.274
CATTTTCC | -0.0141
GGCACGCC | -0.35
GTATACGA | 0.15
AATGAACA | 0.224
AACCTCAT | 0.118
GCAACAGA | -0.00297
ATCCCGCC | -0.294
ACCACAGG | -0.208
AGATAGAT | -0.0694
GGCTATAA | 0.0869
ATCCTTAG | -0.0601
ATCTCACG | -0.123
ACACGGCG | 0.354
CGGACCAG | -0.139
ACCCGGAT | -0.307
CAAAGCGC | -0.115
ATGAATGG | -0.133
ACGCGTAA | 0.394
CGCAATTC | -0.0219

Sequence | PBM E-score
AGGCTCAA | -0.213
CTATCTAC | 0.234
GCCTGACA | -0.134
TGGAGAAA | -0.169
TACCAACA | 0.252
TCTGTGCA | 0.0841
AATCCCGC | -0.0997
CCAATCTA | -0.0689
AGTAAGTC | -0.0383
CGTATACC | 0.0081
TAGAGGGA | -0.124
CTGTAAAC | 0.31
ACCTCCCT | -0.254
CTTCCCTC | -0.232
ACGCCACA | 0.0371
AAGCAGGT | 0.0138
CGGCATCC | -0.0466
ACCGGAGC | -0.27
CGAATACG | 0.259
CAACCTCG | 0.00622
CGCCAGTA | -0.18
AAGGTCCG | -0.108
GATCGTAC | -0.24
CAGTTTCC | -0.159
GATTCGCC | -0.176

Sequence | PBM E-score
TGGCCAAA | -0.0459
ACCACCTC | -0.164
GGAGGGTA | -0.194
CCCTACAA | 0.138
AGTCGTCA | -0.128
AAAACGCG | 0.286
GGCAAAAA | -0.0268
ACATCTCT | 0.2
AACATTTG | 0.0358
CTAGCTTC | -0.192
ACGAGTAC | 0.316
CCCACATC | -0.136
CAACCGTG | 0.0669
AGAGGAGG | -0.34
CGGCGGGA | -0.341
AAGGAATA | 0.0596
CACGCCCA | 0.105
ATACGCCA | -0.109
AATTTTGG | -0.0175
AAATAACC | 0.00326
TCGTATAA | 0.173
CCAAAGAG | -0.108
GAGGTGAA | -0.0616
CGTCGAAA | 0.177
GCTTCAAC | 0.0375

Sequence | PBM E-score
CCCTCCGG | -0.199
GGCCGAAC | -0.267
GCATGTCA | 0.36
GAGCCGCC | -0.273
CTCGTCAA | -0.00047
CTGTCCCA | -0.136
ACCGAGAC | -0.0321
AGTTATAC | 0.125
ACTAAGAC | 0.0422
GTTCGCGA | 0.113
GAGAGCAA | -0.14
GAATCGTA | 0.00348
AGCTTTAA | 0.106
GCTAAACC | -0.15
AGATTACA | 0.411
CCTCAGCC | -0.247
GGTCAACC | -0.17
CTTCGATA | 0.0352
GAACTTGC | 0.139
GCCGACAC | -0.068
GAGGATTA | 0.0642
ACCCGGAG | -0.0101
GCAGCACA | -0.0784
GGCAGTAA | -0.156
TGACCGAA | -0.0905

Sequence | PBM E-score
ATGGGTAG | -0.086
CATAAGAC | 0.0162
AAACCAAA | 0.167
ACTGTAAA | 0.222
AATGCTGT | 0.105
CACGCTTA | 0.33
AGGCTAAT | -0.094
CATGTACC | 0.287
GCCTGCCA | -0.0217
CGGGGGTA | -0.243
AGTGTGCC | -0.266
CCCGAAAA | -0.0882
AGCCAGCC | -0.196
GTCAACAA | 0.197
AAATAGTA | 0.0991
ACTGTCTG | -0.201
CCAAAACC | -0.0752
CAGGTGAA | 0.0124
CAGATCCA | -0.0975
CCAGCGAA | -0.228
GGTCACCA | -0.357
CCGTACTC | -0.122
CTATCGAG | -0.185
ACCAACAT | 0.338
CTGTGTAC | 0.35

Sequence | PBM E-score
AGTTATCG | 0.0173
CGTGGGGC | -0.349
AAGCTAAT | 0.0678
GCCGCCTA | -0.278
CGTTACGA | 0.182
GGTTCTGA | -0.00782
GCCGTGAC | -0.00226
GCATGCGA | 0.0698
TGATAAAA | 0.142
GATTTCAA | 0.00788
AGCCACCT | -0.2
GGCTACCA | -0.143
ATAGGACG | -0.138
ATGATTAG | 0.121
TAAAAGTA | 0.191
AATCAAGA | -0.0294
ATGGCCCA | -0.0587
CCCCTCCC | -0.386
CAGGGCGA | -0.137
GGGACGAA | 0.0435
ATCTTGAG | -0.0606
CTTCCCGA | -0.107
CGTGACAA | 0.118
GGAGATAC | -0.15
AACGCATT | 0.313

Sequence | PBM E-score
ACTGACCG | -0.299
CATCTTGA | 0.0563
GGACATTA | 0.0946
GGATGGTA | 0.148
ACGTAACC | 0.22
CCCGGTGA | -0.242
CAATGATG | -0.0269
AGTCATCA | -0.209
ATCGACTC | -0.0583
CGTCGCAG | 0.00681
AGCCCAAC | -0.144
TAGAGCGA | -0.0117
TACGCCTA | 0.026
AGAGTTTG | 0.0518
GGGTGTCA | -0.00381
AATAATGC | 0.158
CGGCAACA | 0.111
CCCCGACC | -0.197
AAACCTGC | -0.0545
